# For some assays here: The strong results were mostly taken out for another list; the other results follow. The entries are a selection whose mix differs from that of the whole data set.
# Molecular target: Protein kinase C beta type (Homo sapiens) (UniProt P05771)
# Settings: at 0.1 µM
# Chain of UniProt P05771 (P05771 whole entry, looked up): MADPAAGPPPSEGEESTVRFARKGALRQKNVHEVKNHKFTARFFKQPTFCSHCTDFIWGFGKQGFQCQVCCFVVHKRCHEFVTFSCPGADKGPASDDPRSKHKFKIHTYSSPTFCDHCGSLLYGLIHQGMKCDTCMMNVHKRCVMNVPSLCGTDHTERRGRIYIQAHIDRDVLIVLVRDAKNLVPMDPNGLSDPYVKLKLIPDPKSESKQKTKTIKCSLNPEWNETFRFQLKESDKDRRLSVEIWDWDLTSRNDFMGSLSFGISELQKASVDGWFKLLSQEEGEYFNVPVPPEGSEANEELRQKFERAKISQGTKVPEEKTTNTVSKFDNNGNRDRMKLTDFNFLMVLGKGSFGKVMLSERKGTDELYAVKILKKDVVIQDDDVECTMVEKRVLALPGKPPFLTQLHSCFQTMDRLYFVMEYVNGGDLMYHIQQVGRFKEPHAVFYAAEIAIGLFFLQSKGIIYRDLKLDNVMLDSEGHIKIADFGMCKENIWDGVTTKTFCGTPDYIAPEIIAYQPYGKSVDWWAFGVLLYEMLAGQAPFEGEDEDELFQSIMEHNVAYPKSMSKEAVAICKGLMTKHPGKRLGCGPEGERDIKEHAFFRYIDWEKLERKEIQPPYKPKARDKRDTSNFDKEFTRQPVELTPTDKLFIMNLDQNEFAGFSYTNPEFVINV
row,SMILES,inhibition
1,O=C1NC(=O)C(c2ccccc2)=C1Nc1ccccc1,4.21%
2,CC(C)(C)c1ccc(Oc2nccc(-c3c(-c4ccc(F)cc4)ncn3C3CCNCC3)n2)cc1,0.95%
3,Cc1cccc(Oc2nccc(-c3c(-c4ccc(F)cc4)ncn3C3CCNCC3)n2)c1C,1.25%
4,Fc1ccc(-c2ncn(C3CCNCC3)c2-c2ccnc(Oc3cccc(C(F)(F)F)c3)n2)cc1,2.34%
5,Fc1ccc(-c2ncn(C3CCNCC3)c2-c2ccnc(Oc3cccc(F)c3)n2)cc1,1.84%
6,O=C1NC(=O)C(c2ccccc2Cl)=C1Nc1cc(Cl)c(O)c(Cl)c1,3.48%
7,CS(=O)(=O)c1ccc(Oc2nccc(-c3c(-c4ccc(F)cc4)ncn3C3CCNCC3)n2)cc1,0.91%
8,COc1ccccc1C1=C(Nc2ccccc2)C(=O)NC1=O,5.42%
9,COc1ccccc1Oc1nccc(-c2c(-c3ccc(F)cc3)ncn2C2CCNCC2)n1,1.35%
10,NC(=O)CCc1ccccc1Oc1nccc(-c2c(-c3ccc(F)cc3)ncn2C2CCNCC2)n1,0.09%
11,Fc1ccc(Oc2nccc(-c3c(-c4ccc(F)cc4)ncn3C3CCNCC3)n2)cc1,2%
12,O=C1NC(=O)C(c2cccc([N+](=O)[O-])c2)=C1Nc1cc(Cl)c(O)c(Cl)c1,0.87%
13,Fc1ccc(-c2ncn(C3CCNCC3)c2-c2ccnc(Oc3ccc(Cl)cc3)n2)cc1,0.33%
14,O=C(O)c1ccc(Oc2nccc(-c3c(-c4ccc(F)cc4)ncn3C3CCNCC3)n2)cc1,2.77%

# Molecular target: Protein kinase C beta type (Homo sapiens) (UniProt P05771)
# Settings: at 1 µM
row,SMILES,inhibition
1,O=C1NC(=O)C(c2ccccc2)=C1Nc1ccccc1,11.6%
2,CC(C)(C)c1ccc(Oc2nccc(-c3c(-c4ccc(F)cc4)ncn3C3CCNCC3)n2)cc1,5.68%
3,Cc1cccc(Oc2nccc(-c3c(-c4ccc(F)cc4)ncn3C3CCNCC3)n2)c1C,5.33%
4,Fc1ccc(-c2ncn(C3CCNCC3)c2-c2ccnc(Oc3cccc(C(F)(F)F)c3)n2)cc1,4.66%
5,Fc1ccc(-c2ncn(C3CCNCC3)c2-c2ccnc(Oc3cccc(F)c3)n2)cc1,6.85%
6,O=C1NC(=O)C(c2ccccc2Cl)=C1Nc1cc(Cl)c(O)c(Cl)c1,3.15%
7,CS(=O)(=O)c1ccc(Oc2nccc(-c3c(-c4ccc(F)cc4)ncn3C3CCNCC3)n2)cc1,3.5%
8,COc1ccccc1C1=C(Nc2ccccc2)C(=O)NC1=O,24.7%
9,COc1ccccc1Oc1nccc(-c2c(-c3ccc(F)cc3)ncn2C2CCNCC2)n1,3.22%
10,NC(=O)CCc1ccccc1Oc1nccc(-c2c(-c3ccc(F)cc3)ncn2C2CCNCC2)n1,3.24%
11,Fc1ccc(Oc2nccc(-c3c(-c4ccc(F)cc4)ncn3C3CCNCC3)n2)cc1,3.88%
12,O=C1NC(=O)C(c2cccc([N+](=O)[O-])c2)=C1Nc1cc(Cl)c(O)c(Cl)c1,3.52%
13,Fc1ccc(-c2ncn(C3CCNCC3)c2-c2ccnc(Oc3ccc(Cl)cc3)n2)cc1,5.01%
14,O=C(O)c1ccc(Oc2nccc(-c3c(-c4ccc(F)cc4)ncn3C3CCNCC3)n2)cc1,3.57%

# Molecular target: T1, Serine/threonine-protein kinase D1 (Homo sapiens) (UniProt Q15139)
# T1 sequence (whole entry): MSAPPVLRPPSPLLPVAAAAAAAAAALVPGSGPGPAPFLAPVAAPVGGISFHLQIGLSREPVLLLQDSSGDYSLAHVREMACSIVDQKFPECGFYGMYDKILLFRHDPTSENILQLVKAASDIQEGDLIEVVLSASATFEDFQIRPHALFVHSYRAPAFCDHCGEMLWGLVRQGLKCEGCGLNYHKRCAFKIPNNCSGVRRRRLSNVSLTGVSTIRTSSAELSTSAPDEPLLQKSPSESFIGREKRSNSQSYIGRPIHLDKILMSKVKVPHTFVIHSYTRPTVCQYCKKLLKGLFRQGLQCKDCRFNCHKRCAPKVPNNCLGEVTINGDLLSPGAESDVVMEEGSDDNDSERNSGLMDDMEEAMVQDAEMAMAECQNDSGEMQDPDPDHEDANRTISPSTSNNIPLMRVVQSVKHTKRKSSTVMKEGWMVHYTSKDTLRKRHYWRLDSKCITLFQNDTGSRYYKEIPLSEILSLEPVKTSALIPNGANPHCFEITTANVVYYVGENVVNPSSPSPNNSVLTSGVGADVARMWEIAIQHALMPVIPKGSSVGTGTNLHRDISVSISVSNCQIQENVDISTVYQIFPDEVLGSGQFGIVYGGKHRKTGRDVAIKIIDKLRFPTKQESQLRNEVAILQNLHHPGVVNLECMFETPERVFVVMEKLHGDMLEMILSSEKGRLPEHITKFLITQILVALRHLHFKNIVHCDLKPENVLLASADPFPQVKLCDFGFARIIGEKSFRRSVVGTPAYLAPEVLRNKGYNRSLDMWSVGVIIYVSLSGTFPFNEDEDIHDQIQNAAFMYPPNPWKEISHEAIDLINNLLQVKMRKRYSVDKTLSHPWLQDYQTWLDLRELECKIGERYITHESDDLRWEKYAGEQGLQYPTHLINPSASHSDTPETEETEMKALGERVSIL
# Settings: at 0.1 µM
row,SMILES,inhibition
1,O=C1NC(=O)C(c2ccccc2)=C1Nc1ccccc1,4.35%
2,CC(C)(C)c1ccc(Oc2nccc(-c3c(-c4ccc(F)cc4)ncn3C3CCNCC3)n2)cc1,3.14%
3,Cc1cccc(Oc2nccc(-c3c(-c4ccc(F)cc4)ncn3C3CCNCC3)n2)c1C,6%
4,Fc1ccc(-c2ncn(C3CCNCC3)c2-c2ccnc(Oc3cccc(C(F)(F)F)c3)n2)cc1,4.47%
5,Fc1ccc(-c2ncn(C3CCNCC3)c2-c2ccnc(Oc3cccc(F)c3)n2)cc1,4.11%
6,O=C1NC(=O)C(c2ccccc2Cl)=C1Nc1cc(Cl)c(O)c(Cl)c1,2.88%
7,CS(=O)(=O)c1ccc(Oc2nccc(-c3c(-c4ccc(F)cc4)ncn3C3CCNCC3)n2)cc1,3.79%
8,COc1ccccc1C1=C(Nc2ccccc2)C(=O)NC1=O,2.56%
9,COc1ccccc1Oc1nccc(-c2c(-c3ccc(F)cc3)ncn2C2CCNCC2)n1,6.05%
10,NC(=O)CCc1ccccc1Oc1nccc(-c2c(-c3ccc(F)cc3)ncn2C2CCNCC2)n1,-1.84%
11,Fc1ccc(Oc2nccc(-c3c(-c4ccc(F)cc4)ncn3C3CCNCC3)n2)cc1,0.15%
12,O=C1NC(=O)C(c2cccc([N+](=O)[O-])c2)=C1Nc1cc(Cl)c(O)c(Cl)c1,1.2%
13,Fc1ccc(-c2ncn(C3CCNCC3)c2-c2ccnc(Oc3ccc(Cl)cc3)n2)cc1,-0.41%
14,O=C(O)c1ccc(Oc2nccc(-c3c(-c4ccc(F)cc4)ncn3C3CCNCC3)n2)cc1,5.26%

# Molecular target: T1, Serine/threonine-protein kinase D1 (Homo sapiens)
# Settings: at 1 µM
row,SMILES,inhibition
1,O=C1NC(=O)C(c2ccccc2)=C1Nc1ccccc1,7.48%
2,CC(C)(C)c1ccc(Oc2nccc(-c3c(-c4ccc(F)cc4)ncn3C3CCNCC3)n2)cc1,10.4%
3,Cc1cccc(Oc2nccc(-c3c(-c4ccc(F)cc4)ncn3C3CCNCC3)n2)c1C,18.2%
4,Fc1ccc(-c2ncn(C3CCNCC3)c2-c2ccnc(Oc3cccc(C(F)(F)F)c3)n2)cc1,7.95%
5,Fc1ccc(-c2ncn(C3CCNCC3)c2-c2ccnc(Oc3cccc(F)c3)n2)cc1,7.47%
6,O=C1NC(=O)C(c2ccccc2Cl)=C1Nc1cc(Cl)c(O)c(Cl)c1,4.09%
7,CS(=O)(=O)c1ccc(Oc2nccc(-c3c(-c4ccc(F)cc4)ncn3C3CCNCC3)n2)cc1,5.15%
8,COc1ccccc1C1=C(Nc2ccccc2)C(=O)NC1=O,4.49%
9,COc1ccccc1Oc1nccc(-c2c(-c3ccc(F)cc3)ncn2C2CCNCC2)n1,13.8%
10,NC(=O)CCc1ccccc1Oc1nccc(-c2c(-c3ccc(F)cc3)ncn2C2CCNCC2)n1,-1.13%
11,Fc1ccc(Oc2nccc(-c3c(-c4ccc(F)cc4)ncn3C3CCNCC3)n2)cc1,1.01%
12,O=C1NC(=O)C(c2cccc([N+](=O)[O-])c2)=C1Nc1cc(Cl)c(O)c(Cl)c1,1.22%
13,Fc1ccc(-c2ncn(C3CCNCC3)c2-c2ccnc(Oc3ccc(Cl)cc3)n2)cc1,1.79%
14,O=C(O)c1ccc(Oc2nccc(-c3c(-c4ccc(F)cc4)ncn3C3CCNCC3)n2)cc1,6.33%
